Measured values reported in publication PMC6919601, “Identification of Plasmodium dipeptidyl aminopeptidase allosteric inhibitors by high throughput screening” (PLoS ONE, 2019).
The campaign covered roughly 110,000 compounds. About 230 (0.21%) showed an effect of 50% or more. The list shows a part of the results.

These molecules were tested against DPAP1 (Plasmodium falciparum, UniProt Q8IIJ9) (assay: primary screen, percent inhibition; read by cleavage of a fluorogenic dipeptide substrate; higher = more effect of the substance).
DPAP1, sequence (Q8IIJ9 whole entry, looked up): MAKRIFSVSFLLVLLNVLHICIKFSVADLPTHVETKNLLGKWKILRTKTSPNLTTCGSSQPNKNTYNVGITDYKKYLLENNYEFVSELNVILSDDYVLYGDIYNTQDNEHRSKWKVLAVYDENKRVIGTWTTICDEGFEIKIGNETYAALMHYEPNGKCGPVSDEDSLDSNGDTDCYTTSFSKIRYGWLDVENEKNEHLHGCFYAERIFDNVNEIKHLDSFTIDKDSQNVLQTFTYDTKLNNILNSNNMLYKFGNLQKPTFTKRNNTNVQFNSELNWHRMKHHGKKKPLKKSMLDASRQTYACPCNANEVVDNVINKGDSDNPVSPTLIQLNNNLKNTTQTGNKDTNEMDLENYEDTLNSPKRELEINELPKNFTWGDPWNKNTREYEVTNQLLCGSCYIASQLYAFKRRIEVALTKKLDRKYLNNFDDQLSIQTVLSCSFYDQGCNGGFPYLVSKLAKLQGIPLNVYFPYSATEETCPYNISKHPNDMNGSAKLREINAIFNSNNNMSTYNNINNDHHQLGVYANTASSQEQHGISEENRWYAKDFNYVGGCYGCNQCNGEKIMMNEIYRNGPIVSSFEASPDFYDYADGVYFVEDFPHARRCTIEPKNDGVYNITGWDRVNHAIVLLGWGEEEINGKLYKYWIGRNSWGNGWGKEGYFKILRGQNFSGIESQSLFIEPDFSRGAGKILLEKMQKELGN
Parameters: species or system P. falciparum D10 trophozoite lysates; single well
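Further: 30 min substrate incubation versus DMSO and 10 µM JCP410 controls.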

**Q.** Which “% Inhibition @ 10 uM” value does the source give for `COc1ccc(/C=C2\S/C(=N/c3cccc(C(=O)O)c3)N(C)C2=O)c(OC)c1` here?
**A.** -3.03%

**Q.** How did the “% Inhibition @ 10 uM” value turn out when `CCOC(=O)c1c(NC(=O)c2ccccc2F)sc(C(=O)N2CCCCC2)c1C` was run?
**A.** -3.74%

**Q.** `Cc1ccccc1NC(=O)C1C2c3ccccc3OC1(C)N=c1s/c(=C/c3cnn(C)c3C)c(=O)n12` (stereo not drawn) was tested. Which “% Inhibition @ 10 uM” value did it give?
**A.** -3.26%

**Q.** Which “% Inhibition @ 10 uM” value does the source give for `CN(Cc1ccc2c(c1)OCO2)C1CCCCC1` here?
**A.** 0.273%

**Q.** For `O=C(c1cn(-c2ccccc2)nc1-c1ccccc1)N1CCOCC1`, which “% Inhibition @ 10 uM” value is on record?
**A.** 3.98%

**Q.** `C[n+]1c(/C=C/c2ccc3c(c2)OCO3)sc2ccccc21` was tested. Which “% Inhibition @ 10 uM” value did it give?
**A.** -1.4%

**Q.** `CN(Cc1ccccc1)C(=O)C1=CC(c2cccs2)=NS(=O)(=O)N1C` was tested. Which “% Inhibition @ 10 uM” value did it give?
**A.** -1.06%

**Q.** `O=C(NCc1ccccc1)c1ccc(CS(=O)(=O)c2ccc(Br)cc2)cc1` was tested. Which “% Inhibition @ 10 uM” value did it give?
**A.** 3.25%

**Q.** With `CC1(C)[C@H]2CC=C(CN3CCC(O)CC3)[C@@H]1C2` as the molecule, how does the “% Inhibition @ 10 uM” value read?
**A.** -1.78%

**Q.** With `Cn1cc(C(=O)C(=O)NCCc2ccccc2)c2ccccc21` as the molecule, how does the “% Inhibition @ 10 uM” value read?
**A.** 1.32%

**Q.** For `COc1cc(OC)cc(C(=O)N2CCN(C3CCCCC3)CC2)c1`, which “% Inhibition @ 10 uM” value is on record?
**A.** -9.7%

**Q.** `COc1cc(/C=C(\C#N)c2nc3cc(C)ccc3[nH]2)cc(Cl)c1O` was tested. Which “% Inhibition @ 10 uM” value did it give?
**A.** 2.36%

**Q.** Which “% Inhibition @ 10 uM” value does the source give for `COc1ccc2[nH]c3c(=O)n(Cc4ccc(C(=O)N5CCC(C(N)=O)CC5)cc4)c(=S)[nH]c3c2c1` here?
**A.** 28.2%

**Q.** How did the “% Inhibition @ 10 uM” value turn out when `CCN(CC)CCCNC(=O)CCCn1nc(C)c2sc3ccccc3c2c1=O` was run?
**A.** -5.12%

**Q.** `CC(C#N)(Nc1ccccc1)c1ccccn1` (stereo not drawn) was tested. Which “% Inhibition @ 10 uM” value did it give?
**A.** 2.5%

**Q.** Which “% Inhibition @ 10 uM” value does the source give for `O=C1OCc2ccccc21` here?
**A.** 5.58%

**Q.** How did the “% Inhibition @ 10 uM” value turn out when `CC(C)(C)C(=O)Nc1ccc(C(=O)Nc2cccc(O)c2)cc1` was run?
**A.** -2.63%

**Q.** With `Cc1ccc(Nc2nc(N)nc(CSc3nc(C)cc(C)n3)n2)cc1` as the molecule, how does the “% Inhibition @ 10 uM” value read?
**A.** 3.35%

**Q.** For `O=S(=O)(c1ccccc1)c1nnn2c1nc(NCCc1ccc(Cl)cc1)c1ccccc12`, which “% Inhibition @ 10 uM” value is on record?
**A.** -6.68%

**Q.** For `COc1ccc(N(CC(=O)NC(C)C)S(=O)(=O)c2ccc(C)cc2)cc1Cl`, which “% Inhibition @ 10 uM” value is on record?
**A.** -9.26%

**Q.** How did the “% Inhibition @ 10 uM” value turn out when `CCOc1ccc(-c2cc(OC(=O)c3ccco3)c3c(C)oc(C)c3c(=O)c2)cc1` was run?
**A.** -2.75%

**Q.** For `CC(C)CN(CC(C)C)c1ncnc2c1cnn2-c1ccccc1`, which “% Inhibition @ 10 uM” value is on record?
**A.** -1.79%

**Q.** `Cc1cc2c(c(=O)o1)C(c1ccc(Cl)cc1Cl)C(C#N)=C(N)O2` (stereo not drawn) was tested. Which “% Inhibition @ 10 uM” value did it give?
**A.** -5.5%

**Q.** `O=C(c1cccs1)N1CCN(c2ncccn2)CC1` was tested. Which “% Inhibition @ 10 uM” value did it give?
**A.** -0.95%

**Q.** For `COc1ccc(Cc2nc3c4cnn(C)c4ncn3n2)cc1OC`, which “% Inhibition @ 10 uM” value is on record?
**A.** 2.19%

**Q.** How did the “% Inhibition @ 10 uM” value turn out when `COc1ccc(Br)cc1CNC(=O)Cn1ncn2c(cc3sc(C)cc32)c1=O` was run?
**A.** 4.84%

**Q.** `Cc1nn(Cc2ccc(C(=O)NC3CCCCC3)cc2)c(C)c1Cl` was tested. Which “% Inhibition @ 10 uM” value did it give?
**A.** 0.76%

**Q.** Which “% Inhibition @ 10 uM” value does the source give for `O=c1ccc2nc3ccccc3c(=O)n2[nH]1` here?
**A.** -6.22%

**Q.** Which “% Inhibition @ 10 uM” value does the source give for `CC1CCN(S(=O)(=O)c2ccc3c(ccn3CC(=O)NCc3ccccc3Cl)c2)CC1` here?
**A.** 1.41%

**Q.** `CC1=C(C(=O)OC2CCC(C)CC2)C(c2ccc(C)cc2)NC(=O)N1` (stereo not drawn) was tested. Which “% Inhibition @ 10 uM” value did it give?
**A.** 4.28%

**Q.** `CCOc1ccccc1NC(=O)CN(c1cccc(Cl)c1)S(C)(=O)=O` was tested. Which “% Inhibition @ 10 uM” value did it give?
**A.** -1.43%

**Q.** `Cc1onc(-c2ccccc2Cl)c1C(=O)N(C)c1ccccc1` was tested. Which “% Inhibition @ 10 uM” value did it give?
**A.** 1.13%

**Q.** `CCn1c(SCc2ccc(C(=O)O)o2)nnc1-c1ccc(Cl)cc1` was tested. Which “% Inhibition @ 10 uM” value did it give?
**A.** 3.54%

**Q.** With `CC(C)(Oc1ccc(-c2ccncn2)cc1)C(=O)O` as the molecule, how does the “% Inhibition @ 10 uM” value read?
**A.** -5.98%

**Q.** `O=C(Cn1ccc2cc(S(=O)(=O)N3CCCC3)ccc21)NCCc1cccs1` was tested. Which “% Inhibition @ 10 uM” value did it give?
**A.** 0.00226%

**Q.** Which “% Inhibition @ 10 uM” value does the source give for `O=C(/C=C/c1c[nH]c2ccc(Br)cc12)c1ccncc1` here?
**A.** -0.807%

**Q.** Which “% Inhibition @ 10 uM” value does the source give for `N#CC1=C(N)SC(N)=C(C#N)C1c1c(Cl)cccc1Cl` here?
**A.** 28.7%

**Q.** Which “% Inhibition @ 10 uM” value does the source give for `C=CC1(C)CCC2C(O1)c1ccccc1OC2(C)C` (stereo not drawn) here?
**A.** -7.35%

**Q.** How did the “% Inhibition @ 10 uM” value turn out when `COc1cccc(-c2nc(-c3ccccn3)no2)c1` was run?
**A.** 5.23%

**Q.** For `CCC(C(=O)Nc1ncccc1C)(C(F)(F)F)C(F)(F)F`, which “% Inhibition @ 10 uM” value is on record?
**A.** -6.06%

**Q.** For `CC(=O)/N=C(/Nc1ccc(C)c(Cl)c1)Nc1nc(C)cc(C)n1`, which “% Inhibition @ 10 uM” value is on record?
**A.** -2.74%

**Q.** Which “% Inhibition @ 10 uM” value does the source give for `O=C(C(c1ccccc1)c1ccccc1)N1CCN(Cc2ccc(F)cc2)CC1` here?
**A.** 3.86%

**Q.** With `CCOc1ccccc1-n1cnc2cc(C(=O)NCc3ccco3)ccc21` as the molecule, how does the “% Inhibition @ 10 uM” value read?
**A.** -0.458%

**Q.** Which “% Inhibition @ 10 uM” value does the source give for `O=C(C1CCN(S(=O)(=O)c2ccccc2)CC1)N1CCC(Cc2ccccc2)CC1` here?
**A.** 3.16%

**Q.** Which “% Inhibition @ 10 uM” value does the source give for `CC[C@H](NC(=O)[C@H](CC(C)C)NC1=NC(=O)c2ccccc21)C(=O)c1nc2ccccc2o1` here?
**A.** 8.48%

**Q.** Which “% Inhibition @ 10 uM” value does the source give for `Brc1ccc(OCc2nn3c(Cc4ccccc4)nnc3s2)cc1` here?
**A.** -1.69%

**Q.** Which “% Inhibition @ 10 uM” value does the source give for `COc1ccc(NC(=O)CN(C)S(=O)(=O)c2ccc(F)cc2)cc1OC` here?
**A.** -2.29%

**Q.** `N#Cc1c[nH]nc1NCc1cccnc1` was tested. Which “% Inhibition @ 10 uM” value did it give?
**A.** 4.31%

**Q.** For `Cc1cc(OCC(=O)NCCN2CCOCC2)ccc1Cl`, which “% Inhibition @ 10 uM” value is on record?
**A.** -5.01%

**Q.** With `COc1cc(NC(=O)c2ccccc2F)nc(OC)n1` as the molecule, how does the “% Inhibition @ 10 uM” value read?
**A.** -2.8%

**Q.** `Cc1noc(/C=C/N(C)C)c1S(=O)(=O)N(C)Cc1ccc(F)cc1` was tested. Which “% Inhibition @ 10 uM” value did it give?
**A.** 8.97%
